According to PubChem BioAssay (NCATS):
“And” between values parts separate entries of the source, which are not always exact repeats. Equal values may be shown once. The inconclusive results got no clear call from the source; some entries with a clear call stand among them for comparison. For part of these data: Where the call is inconclusive, the potency comes from a doubtful curve fit. The source made the active and inactive calls. Calls come from the whole dose curve; as a rule, active = well fitted curve in the direction sought with a large enough effect; inconclusive = small, poorly fitted or top-dose-only effect, or another doubt; inactive = no such curve, though single readings can be large; an effect the other way counts as inactive or inconclusive.

Key:
[1] = qHTS of pediatric cancer cell lines to identify multiple opportunities for drug repurposing: Primary screen for RD cells (AID 1347104); note: nearly all actives have a fitted effect of over 55% in size
Summary of the method: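 Viability was measured as metabolically active cells after 48 hours of treatment, read by CellTiter-Glo luminescence. Compounds were tested at multiple final concentrations, giving concentration-response curves.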

[2] = test system: Zika virus NS2B-NS3 protease; experiment: Primary screen GU AMC qHTS for Zika virus inhibitors (AID 1347154); note: nearly all actives have a fitted effect of over 70% in size
Summary of the method: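 Unlinked Zika NS2B hydrophilic domain–NS3 protease complex at 25 nM in 10 mM Tris-HCl pH 8.0, 0.01% Tween 20, with an AMC peptide substrate. Fluorescence change (340/450 nm) over 15 min at room temperature, normalized to controls, fitted to 4-parameter Hill.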

[3] = Primary qHTS for small molecule stabilizers of the endoplasmic reticulum resident proteome: Secreted ER Calcium Modulated Protein (SERCaMP) assay (AID 1508630); details: SH-SY5Y GLuc-SERCaMP (Gaussia luciferase released on ER calcium loss) secretion, thapsigargin, luminescence; series mostly up to 38.4 µM
Summary of the method: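 GLuc-SERCaMP-expressing SH-SY5Y cells, pretreated 16 h with compound, are challenged with thapsigargin to empty ER calcium stores; after 4 h, coelenterazine is added directly to the medium and luminescence is imaged.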

[4] = Quantitative High-Throughput drug screen in 47 multiple myeloma cell lines against the NCATS MIPE library collection: AMO1_DSMZ cell viability assay (AID 1918927; note: nearly all actives have a fitted effect of over 30% in size)
Summary of the method: (§1)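 Steps: seed 500 cells per well; pin-transfer MIPE 4.0 library; incubate 48 h at 37C, 5% CO2, humidified; add CellTiter-Glo, 5 min room temperature; read luminescence.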

[5] = Quantitative High-Throughput drug screen in 47 multiple myeloma cell lines against the NCATS MIPE library collection: ARP1_JJKsccF8 cell viability assay (AID 1918928; note: nearly all actives have a fitted effect of over 40% in size); details: ARP1 myeloma cells viability, CellTiter-Glo ATP, 48 h; viability: at 45.8 µM (top of the series)
Summary of the method: (§2)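 Myeloma cells at 500 per well in 1536-well format treated with MIPE 4.0 library by pin transfer for 48 h at 37C, 5% CO2. Viability from ATP luminescence (CellTiter-Glo), normalized to DMSO (100%) and media-only (0%) wells.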

[6] = Quantitative High-Throughput drug screen in 47 multiple myeloma cell lines against the NCATS MIPE library collection: KMM1_JCRB cell viability assay (AID 1918960); note: nearly all actives have a fitted effect of over 30% in size
Summary of the method: as §2

[7] = Quantitative High-Throughput drug screen in 47 multiple myeloma cell lines against the NCATS MIPE library collection: KMS12PE_JCRB cell viability assay (AID 1918972); note: nearly all actives have a fitted effect of over 30% in size
Summary of the method: (§3)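 Myeloma cell lines, 500 cells per well, exposed to MIPE 4.0 library compounds for 48 h at 37C, 5% CO2. Viability from ATP by CellTiter-Glo luminescence; normalised to DMSO (100%) and media-only (0%) wells.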

[8] = Quantitative High-Throughput drug screen in 47 multiple myeloma cell lines against the NCATS MIPE library collection: RPMI8226_ATCC cell viability assay (AID 1919871); note: nearly all actives have a fitted effect of over 30% in size
Summary of the method: (§4)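 500 cells/well per myeloma line exposed to pinned MIPE 4.0 compounds for 48 h at 37 °C, 5% CO2. Viability read as ATP by CellTiter-Glo luminescence, normalised to DMSO-only (100%) and media-only (0%) wells.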

CASKI = experiment: Primary qHTS to identify gynecologic anti-cancer compounds using libraries of approved drugs and bioactive compounds (AID 1345084); details: Gynecologic cancer cell panel viability, ATPlite luminescence, 48 h; series mostly up to 57.5 µM; note: nearly all actives have a fitted effect of over 55% in size
Summary of the method: (§5)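 Luminescence from the ATPlite ATP-monitoring reagent indicates viable cell number; lower signal means cytotoxicity. Cells received compound 16 h after seeding and were exposed for 48 h across five concentrations.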

OV90 = experiment: as above; details: Gynecologic cancer cell panel viability, ATPlite luminescence, 48 h; series mostly up to 57.5 µM
Summary of the method: as §5

PA-1 = experiment: as above; details: Gynecologic cancer cell panel viability, ATPlite luminescence, 48 h; series mostly up to 57.5 µM
Summary of the method: as §5

[9] = Quantitative High-Throughput drug screen in 47 multiple myeloma cell lines against the NCATS MIPE library collection: EJM_DSMZ cell viability assay (AID 1918926; note: nearly all actives have a fitted effect of over 30% in size)
Summary of the method: as §1

[10] = Quantitative High-Throughput drug screen in 47 multiple myeloma cell lines against the NCATS MIPE library collection: Karpas620_DSMZ cell viability assay (AID 1918959); note: nearly all actives have a fitted effect of over 30% in size
Summary of the method: as §3

[11] = Quantitative High-Throughput drug screen in 47 multiple myeloma cell lines against the NCATS MIPE library collection: PCM6_Riken cell viability assay (AID 1919870); note: nearly all actives have a fitted effect of over 30% in size
Summary of the method: as §4

[12] = Quantitative High-Throughput drug screen in 47 multiple myeloma cell lines against the NCATS MIPE library collection: KMS11_JCRBsus cell viability assay (AID 1919873); note: nearly all actives have a fitted effect of over 50% in size
Summary of the method: as §4

[13] = Quantitative High-Throughput drug screen in 47 multiple myeloma cell lines against the NCATS MIPE library collection: KMS12BM_JCRB cell viability assay (AID 1918971); note: nearly all actives have a fitted effect of over 35% in size
Summary of the method: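 Luminescent ATP measurement with CellTiter-Glo gives viability, scaled between DMSO-only wells (100%) and media-only wells (0%). Cells, 500 per well, faced library compounds for 48 hours at 37C.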

[14] = qHTS assay to identify inhibitors of the type 1 interferon - major histocompatibility complex class I in skeletal muscle: Counter screen cell viability and HiBit confirmation (AID 1347412); details: iHSKM muscle cells + IFN-b, HiBiT or CellTiter-Glo, 24 h; Viability; note: nearly all actives have a fitted effect of over 60% in size
Summary of the method: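 CRISPR HLA-B*08:01-HiBit immortalized human myoblasts (C25cl48) stimulated with 4 ng/ml IFN-beta and compounds (12-point 1:3, top 46 uM final) for 24 h at 37 C. Duplicate plates read by HiBit lytic luminescence or CellTiter Glo ATP.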

[15] = Quantitative High-Throughput drug screen in 47 multiple myeloma cell lines against the NCATS MIPE library collection: U266_ATCC cell viability assay (AID 1919864); note: nearly all actives have a fitted effect of over 35% in size
Summary of the method: as §4

[16] = qHTS of pediatric cancer cell lines to identify multiple opportunities for drug repurposing: Primary screen for SK-N-MC cells (AID 1347093); details: SK-N-MC viability, CellTiter-Glo luminescence, 48 h; activity change, negative = cytotoxic: at 46 µM (top of the series)
Summary of the method: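 Metabolically active cells were quantified by ATP-dependent luminescence (CellTiter-Glo, 15 min at room temperature) following 48 h treatment. Cells had been plated at 500-1,000 per well and settled for 5 h beforehand.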
Potency is the fitted concentration of half-maximal effect; tags give direction and shape of the fitted curve.

Question: For `COc1cccc2cc(-c3nc(C4CCC(C(=O)O)CC4)n4ncnc(N)c34)[nH]c12` (stereo not given), which Potency [1] is on record?
Answer: Its Potency is inconclusive: 0.332 µM [cytotoxic, full curve].

Question: What about the Potency [2] of the same compound?
Answer: The Potency was inconclusive: 21.5 µM [inhibitor, partial curve].

Question: And the Potency [3]?
Answer: Its Potency is inconclusive: 1.49 µM [inhibitor, full curve].

Question: What about the Potency [4] of the same compound?
Answer: The Potency was active: 0.372 µM.

Question: And the Potency [5]?
Answer: Its Potency is active: 0.662 µM.

Question: And the Potency [6]?
Answer: The Potency was inconclusive: 0.0332 µM [cytotoxic, full curve].

Question: And the Potency [7]?
Answer: Its Potency is active: 0.166 µM.

Question: And the Potency [8]?
Answer: Its Potency is active: 0.59 µM.

Question: What about the Potency (CASKI) of the same compound?
Answer: The Potency was inconclusive: 1.58 µM [cytotoxic, full curve, poor fit].

Question: And the Potency (OV90)?
Answer: The Potency was active: 7.94 µM.

Question: And the Potency (PA-1)?
Answer: Its Potency is active: 3.16 µM.

Question: Which Potency [3] does the source give for `Oc1cn2c(n1)Nc1ccc(Cl)c(Cl)c1C2` here?
Answer: Its Potency is inconclusive: 11.2 µM [inhibitor, full curve] and inconclusive: 1.26 µM [inhibitor, full curve].

Question: And the Potency (PA-1)?
Answer: Its Potency is active: 0.355 µM.

Question: With `S=C(NCc1ccc2c(c1)OCO2)N1CCN(c2ncnc3c2oc2ccccc23)CC1` as the compound, how does the Potency [1] read?
Answer: The Potency was inconclusive: 3.03 µM [cytotoxic, full curve].

Question: What about the Potency [2] of the same compound?
Answer: The Potency was inconclusive: 12.4 µM [inhibitor, partial curve, poor fit].

Question: What about the Potency [9] of the same compound?
Answer: The Potency was inconclusive: 19.1 µM [cytotoxic, partial curve].

Question: And the Potency [5]?
Answer: The Potency was active: 3.03 µM.

Question: And the Potency [10]?
Answer: The Potency was active: 2.41 µM.

Question: And the Potency [11]?
Answer: The Potency was active: 4.81 µM.

Question: What about the Potency [8] of the same compound?
Answer: The Potency was inconclusive: 34 µM [cytotoxic, partial curve].

Question: What about the Potency (CASKI) of the same compound?
Answer: Its Potency is inconclusive: 28.2 µM [cytotoxic, single point].

Question: What about the Potency (OV90) of the same compound?
Answer: Its Potency is inconclusive: 14.1 µM [cytotoxic, partial curve, poor fit].

Question: For `COc1cc2ncn(-c3cc(OCc4ccccc4C(F)(F)F)c(C(N)=O)s3)c2cc1OC`, which Potency [5] is on record?
Answer: The Potency was inconclusive: 0.743 µM [cytotoxic, full curve].

Question: What about the Potency [6] of the same compound?
Answer: The Potency was active: 0.469 µM.

Question: What about the Potency [7] of the same compound?
Answer: Its Potency is inconclusive: 0.469 µM [cytotoxic, full curve].

Question: And the Potency [12]?
Answer: The Potency was active: 0.296 µM.

Question: With `CS(=O)(=O)c1cccc(CNc2nc(Nc3ccc4c(c3)CCC(=O)N4)ncc2C(F)(F)F)c1` as the compound, how does the Potency [3] read?
Answer: The Potency was inconclusive: 13.3 µM [inhibitor, partial curve, poor fit].

Question: And the Potency [4]?
Answer: The Potency was active: 9.35 µM.

Question: And the Potency [5]?
Answer: Its Potency is inconclusive: 16.6 µM [cytotoxic, partial curve, poor fit].

Question: And the Potency [6]?
Answer: The Potency was active: 4.18 µM.

Question: And the Potency [13]?
Answer: Its Potency is inconclusive: 37.2 µM [cytotoxic, partial curve, poor fit].

Question: What about the Potency (PA-1) of the same compound?
Answer: Its Potency is inconclusive: 11.2 µM [cytotoxic, partial curve, poor fit].

Question: And the Potency [14]?
Answer: The Potency was inconclusive: 15.7 µM [cytotoxic, partial curve].

Question: Which results are given for `NC1(c2ccc(-c3nc4ccn5c(=O)[nH]nc5c4cc3-c3ccccc3)cc2)CCC1`?
Answer: Potency [1]: active: 16.6 µM and active: 13.3 µM; Potency [2]: inconclusive: 42.9 µM [inhibitor, single point] and inconclusive: 31.6 µM [inhibitor, partial curve]; Potency [3]: inactive; Potency [5]: active: 14.8 µM; Potency [15]: active: 20.9 µM; Potency (CASKI): inconclusive: 891 nM [cytotoxic, full curve] and inconclusive: 794 nM [cytotoxic, full curve, poor fit]; Potency (OV90): active: 2 µM and inconclusive: 39.8 µM [cytotoxic, single point]; Potency (PA-1): inconclusive: 39.8 µM [cytotoxic, single point]

Question: For `O=C(C=Cc1cccc(S(=O)(=O)Nc2ccccc2)c1)NO`, which Potency [1] is on record?
Answer: Its Potency is active: 9.59 µM.

Question: And the Potency [10]?
Answer: The Potency was active: 2.41 µM.

Question: And the Potency [13]?
Answer: Its Potency is active: 1.91 µM.

Question: What about the Potency [8] of the same compound?
Answer: Its Potency is active: 3.4 µM.

Question: What does the source list for `C[C@@]12O[C@@H](C[C@]1(O)CO)n1c3ccccc3c3c4c(c5c6ccccc6n2c5c31)CNC4=O`?
Answer: Potency [16]: active: 0.0372 µM; Potency [2]: active: 21.5 µM; Potency [3]: inactive; Potency [4]: inconclusive: 0.209 µM [cytotoxic, full curve, poor fit]; Potency [5]: active: 0.662 µM; Potency [10]: inconclusive: 1.05 µM [cytotoxic, partial curve, poor fit]; Potency [6]: active: 0.526 µM; Potency [7]: inconclusive: 0.118 µM [cytotoxic, full curve, poor fit]; Potency [8]: active: 1.32 µM

Question: What does the source list for `COc1ccc(C2=N[C@H](c3ccc(Cl)cc3)[C@H](c3ccc(Cl)cc3)N2C(=O)N2CCNC(=O)C2)c(OC(C)C)c1`?
Answer: Potency [1]: inconclusive: 18.7 µM [cytotoxic, partial curve]; Potency [9]: inconclusive: 14.8 µM [cytotoxic, partial curve]; Potency [7]: inconclusive: 5.26 µM [cytotoxic, partial curve, poor fit]; Potency [11]: inconclusive: 20.9 µM [cytotoxic, partial curve]

Question: Which Potency [1] does the source give for `CC(NCc1ccc2c(c1)nc(NC(=O)c1ccc(-c3cn[nH]c3)s1)n2CC(C)(C)O)C(C)(C)C` (stereo not given) here?
Answer: Its Potency is active: 1.05 µM.

Question: And the Potency [2]?
Answer: Its Potency is inconclusive: 27.1 µM [inhibitor, partial curve].
